Substitutions are numbered along the chain they refer to.
T1: Haptoglobin protein (UniProt P00738 19-160; P00738 162-406, limits assumed)
T1 construct: The background describes it as two alpha/beta dimers; also called Hp
T1 sequence (looked up) 1: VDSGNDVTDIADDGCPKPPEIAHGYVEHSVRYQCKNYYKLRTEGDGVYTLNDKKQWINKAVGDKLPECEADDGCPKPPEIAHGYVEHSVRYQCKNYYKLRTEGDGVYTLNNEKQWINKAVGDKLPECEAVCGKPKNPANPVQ
T1 sequence (looked up) 2: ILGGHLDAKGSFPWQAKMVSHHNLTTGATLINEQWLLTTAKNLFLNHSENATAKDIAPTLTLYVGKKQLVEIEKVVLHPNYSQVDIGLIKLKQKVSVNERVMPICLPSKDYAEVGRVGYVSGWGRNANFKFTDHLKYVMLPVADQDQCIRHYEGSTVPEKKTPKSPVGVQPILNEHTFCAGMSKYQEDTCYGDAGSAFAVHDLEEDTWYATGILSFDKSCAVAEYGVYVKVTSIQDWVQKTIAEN

B1: SEQ ID NO 10 (designed binder)
chain: MAQGTVDAKFDKELEEARAEIERLPNLTETQRRNFIDALRKDPSTSAGLLAIAKRWNDEQAPKGQAGQGGGSGLNDIFEAQKIEWHECHHHHHH
modifications: biotinylated (Avitag system)
notes: 3 helical bundle ligand with Avitag; N-terminal Met may be absent; also called 10
B2: SEQ ID NO 2 (designed binder)
chain: B1 chain with N34E, A38L, K41L, T45Q, G48S, I52V, R55G, E59K
modifications: biotinylated (Avitag system)
notes: 3 helical bundle ligand with Avitag and His tag; N-terminal Met may be absent
B3: SEQ ID NO 3 (designed binder)
chain: B1 chain with T30V, A38S, K41A, T45D, G48A, R55G, E59Q
modifications: biotinylated (Avitag system)
notes: as for B2
B4: SEQ ID NO 4 (designed binder)
chain: B1 chain with T30Q, D37H, K41Q, T45D, G48A, R55A, E59R
modifications: biotinylated (Avitag system)
notes: as for B2
B5: SEQ ID NO 5 (designed binder)
chain: B1 chain with T30E, D37Q, T45D, G48S, R55N, E59K
modifications: biotinylated (Avitag system)
notes: as for B2
B6: SEQ ID NO 6 (designed binder)
chain: B1 chain with T30V, N34E, D37L, A38H, I52V, E59Q
modifications: biotinylated (Avitag system)
notes: as for B2
B7: SEQ ID NO 7 (designed binder)
chain: B1 chain with T30H, N34Y, D37F, K41D, T45K, G48L, I52A, W56H
modifications: biotinylated (Avitag system)
notes: as for B2
B8: SEQ ID NO 8 (designed binder)
chain: B1 chain with T30H, D37E, K41L, T45Q, R55N, E59K
modifications: biotinylated (Avitag system)
notes: as for B2
B9: SEQ ID NO 9 (designed binder)
chain: B1 chain with T30A, K41V, T45D, G48S, R55S, E59S
modifications: biotinylated (Avitag system)
notes: as for B2
B10: SEQ ID NO 11 (designed binder)
chain: B1 chain with T30S, D37E, K41Y, T45H, G48S, I52V, R55G, E59R
modifications: biotinylated (Avitag system)
notes: 3 helical bundle ligand with Avitag and His tag; N-terminal Met may be absent; also called 11
B11: SEQ ID NO 12 (designed binder)
chain: B1 chain with T30L, N34H, D37E, T45S, I52V, R55K, E59T
modifications: biotinylated (Avitag system)
notes: 3 helical bundle ligand with Avitag and His tag; N-terminal Met may be absent; also called 12
B12: SEQ ID NO 13 (designed binder)
chain: B1 chain with T30D, N34Q, D37W, A38T, K41H, T45E, G48T, R55G, E59K
modifications: biotinylated (Avitag system)
notes: 3 helical bundle ligand with Avitag and His tag; N-terminal Met may be absent; also called 13
B13: SEQ ID NO 14 (designed binder)
chain: B1 chain with T30E, A38H, T45H, R55N, E59A
modifications: biotinylated (Avitag system)
notes: 3 helical bundle ligand with Avitag and His tag; N-terminal Met may be absent; also called 14
B14: SEQ ID NO 38 (designed binder)
chain: MAQGTVDAKFDKELEEARAEIERLPNLTEEQRRNFIEALRTDPSISAGLLAVAKGWNDKQAPKAAACGLNDIFEAQKIEWHEHHHHHH
modifications: biotinylated (Avitag system)
notes: 3 helical bundle ligand with Avitag and His tag; N-terminal Met may be absent; also called 38
B15: SEQ ID NO 15 (designed binder)
chain: B14 chain with E30V, N34S, E37D, A38Y, T41L, I45Q, G48S, V52I, G55T, K59R
modifications: biotinylated (Avitag system)
notes: 3 helical bundle ligand with Avitag and His tag; N-terminal Met may be absent; also called 15
B16: SEQ ID NO 16 (designed binder)
chain: B14 chain with E30V, N34E, E37G, A38L, I45L, G55E, K59R
modifications: biotinylated (Avitag system)
notes: 3 helical bundle ligand with Avitag and His tag; N-terminal Met may be absent; also called 16
B17: SEQ ID NO 17 (designed binder)
chain: B14 chain with E30V, N34Q, A38Y, T41L, I45A, G48E, V52L, K59R
modifications: biotinylated (Avitag system)
notes: 3 helical bundle ligand with Avitag and His tag; N-terminal Met may be absent; also called 17
B18: SEQ ID NO 18 (designed binder)
chain: B14 chain with E30L, N34E, E37S, A38L, T41L, I45Q, G48S, K59Q
modifications: biotinylated (Avitag system)
notes: 3 helical bundle ligand with Avitag and His tag; N-terminal Met may be absent; also called 18
B19: SEQ ID NO 19 (designed binder)
chain: B14 chain with E30S, E37I, I45E, G48A, V52I, G55D, K59R
modifications: biotinylated (Avitag system)
notes: 3 helical bundle ligand with Avitag and His tag; N-terminal Met may be absent; also called 19
B20: SEQ ID NO 20 (designed binder)
chain: B14 chain with E30I, N34E, E37N, A38L, T41D, I45Q, G55A
modifications: biotinylated (Avitag system)
notes: 3 helical bundle ligand with Avitag and His tag; N-terminal Met may be absent; also called 20
B21: SEQ ID NO 21 (designed binder)
chain: B14 chain with E30V, N34A, E37S, A38S, T41Q, I45D, G48A, V52I, G55N
modifications: biotinylated (Avitag system)
notes: 3 helical bundle ligand with Avitag and His tag; N-terminal Met may be absent; also called 21
B22: SEQ ID NO 22 (designed binder)
chain: B14 chain with E30I, N34G, E37Q, A38T, T41A, I45E, G48T, V52I
modifications: biotinylated (Avitag system)
notes: 3 helical bundle ligand with Avitag and His tag; N-terminal Met may be absent; also called 22
B23: SEQ ID NO 23 (designed binder)
chain: B14 chain with E37Q, A38V, I45D, G48W, K59R
modifications: biotinylated (Avitag system)
notes: 3 helical bundle ligand with Avitag and His tag; N-terminal Met may be absent; also called 23
B24: SEQ ID NO 24 (designed binder)
chain: B14 chain with E30V, N34E, E37A, A38L, T41I, I45D, V52I, G55H, K59S
modifications: biotinylated (Avitag system)
notes: 3 helical bundle ligand with Avitag and His tag; N-terminal Met may be absent; also called 24
B25: SEQ ID NO 25 (designed binder)
chain: B14 chain with E37D, A38H, T41L, I45Q, G48T, V52L, K59R
modifications: biotinylated (Avitag system)
notes: 3 helical bundle ligand with Avitag and His tag; N-terminal Met may be absent; also called 25
B26: SEQ ID NO 26 (designed binder)
chain: B14 chain with E30V, N34E, A38Y, T41L, I45S, G48S, V52T
modifications: biotinylated (Avitag system)
notes: 3 helical bundle ligand with Avitag and His tag; N-terminal Met may be absent; also called 26
B27: SEQ ID NO 27 (designed binder)
chain: B14 chain with E30D, N34E, E37S, A38Y, T41L, I45E, G48A, V52I, G55T, K59R
modifications: biotinylated (Avitag system)
notes: 3 helical bundle ligand with Avitag and His tag; N-terminal Met may be absent; also called 27
B28: SEQ ID NO 28 (designed binder)
chain: B14 chain with E30D, T41S, V52A, W56H
modifications: biotinylated (Avitag system)
notes: 3 helical bundle ligand with Avitag and His tag; N-terminal Met may be absent; also called 28
B29: SEQ ID NO 29 (designed binder)
chain: MAQGTVDAKFDKELEEARAEIERLPNLTEHQRRYFIYSLRFDPSQSAVLLAAAKRHNDEQAPKAAACGLNDIFEAQKIEWHEHHHHHH
modifications: biotinylated (Avitag system)
notes: 3 helical bundle ligand with Avitag and His tag; N-terminal Met may be absent; also called 29
B30: SEQ ID NO 30 (designed binder)
chain: B14 chain with N34E, E37I, I45Q, W56F
modifications: biotinylated (Avitag system)
notes: 3 helical bundle ligand with Avitag and His tag; N-terminal Met may be absent; also called 30
B31: SEQ ID NO 31 (designed binder)
chain: B29 chain with H30W, Y37E, F41I, Q45T, V48H, A52G, H56V, E59K
modifications: biotinylated (Avitag system)
notes: 3 helical bundle ligand with Avitag and His tag; N-terminal Met may be absent; also called 31
B32: SEQ ID NO 32 (designed binder)
chain: B29 chain with Y37T, S38A, F41Y, Q45A, V48L, E59N
modifications: biotinylated (Avitag system)
notes: 3 helical bundle ligand with Avitag and His tag; N-terminal Met may be absent; also called 32
B33: SEQ ID NO 33 (designed binder)
chain: B14 chain with E30Q, E37A, A38Q, T41L, I45D, G48T, V52I, K59S
modifications: biotinylated (Avitag system)
notes: 3 helical bundle ligand with Avitag and His tag; N-terminal Met may be absent; also called 33
B34: SEQ ID NO 34 (designed binder)
chain: B14 chain with E30L, E37D, T41S, I45V, G55T, K59R
modifications: biotinylated (Avitag system)
notes: 3 helical bundle ligand with Avitag and His tag; N-terminal Met may be absent; also called 34

target: T1, Haptoglobin protein; assay: BLI; ligand held 8 h in 0.25 M NaOH, neutralised, against untreated ligand
Protocol: (§1) Biotinylated ligands were immobilized on sensors and incubated with solutions containing Haptoglobin protein at various concentrations. The binding curves were fitted with a 1:1 binding model using the ForteBio software to determine the affinity and the resulting data is shown in the table below. As expected, all affinity agents bind to Haptoglobin protein with high affinity.
Ligands were incubated in 0.25 M NaOH for 8 hours and then neutralized. The binding of the NaOH treated ligands was measured as described in Example 1 and compared to untreated ligand. The binding retained was calculated according to the following formula: […]

Row | Binder | Binding retained after 8 hour exposure to 0.25M NaOH (%)
1 | B1 | 82%
2 | B2 | 74%
3 | B3 | 80%
4 | B4 | 92%
5 | B5 | 66%
6 | B6 | 76%
7 | B7 | 85%
8 | B8 | 90%
9 | B9 | 82%
10 | B10 | 93%
11 | B11 | 84%
12 | B12 | 84%
13 | B13 | 79%
14 | B14 | 97%
15 | B15 | 95%
16 | B16 | 97%
17 | B17 | 95%

Row | Binder | Binding retained after 8 hour exposure to 0.25M NaOH (%)
18 | B18 | 87%
19 | B19 | 95%
20 | B20 | 100%
21 | B21 | 89%
22 | B22 | 90%
23 | B23 | 100%
24 | B24 | 93%
25 | B25 | 96%
26 | B26 | 84%
27 | B27 | 90%
28 | B28 | 95%
29 | B29 | 90%
30 | B30 | 98%
31 | B31 | 95%
32 | B32 | 84%
33 | B33 | 87%
34 | B34 | 88%

target: T1, Haptoglobin protein; assay: BLI (ForteBio), biotinylated ligand on sensor, haptoglobin in solution, 1:1 fit
Protocol: as §1

Row | Binder | Kd
35 | B1 | < 1 nM
36 | B2 | < 1 nM
37 | B3 | < 1 nM
38 | B4 | 2 nM
39 | B5 | < 1 nM
40 | B6 | 4 nM
41 | B7 | < 1 nM
42 | B8 | < 1 nM
43 | B9 | < 1 nM
44 | B10 | < 1 nM
45 | B11 | < 1 nM
46 | B12 | < 1 nM
47 | B13 | < 1 nM
48 | B14 | < 1 nM
49 | B15 | < 1 nM
50 | B16 | 1 nM
51 | B17 | < 1 nM

Row | Binder | Kd
52 | B18 | < 1 nM
53 | B19 | < 1 nM
54 | B20 | < 1 nM
55 | B21 | 6 nM
56 | B22 | < 1 nM
57 | B23 | < 1 nM
58 | B24 | < 1 nM
59 | B25 | 3 nM
60 | B26 | < 1 nM
61 | B27 | < 1 nM
62 | B28 | < 1 nM
63 | B29 | 6 nM
64 | B30 | < 1 nM
65 | B31 | 7 nM
66 | B32 | 3 nM
67 | B33 | < 1 nM
68 | B34 | < 1 nM
